Measured values from the supplement of paper PMC8728848.
The other results are listed elsewhere or left out.

Columns and labels:
Assay in all cases: glycan array binding signal (z-score within array); higher = stronger binding
Conditions in all cases: glycan notation: IUPAC condensed, linker removed
[1] = biological target: GlcNAc(b1-3)Gal(b1-4)GlcNAc(b1-3)Gal(b1-4)GlcNAc(b1-2)Man(a1-3)[GlcNAc(b1-3)Gal(b1-4)GlcNAc(b1-3)Gal(b1-4)GlcNAc(b1-2)Man(a1-6)]Man(b1-4)GlcNAc(b1-4)[Fuc(a1-6)]GlcNAc
Procedure, shortened: (§1)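 The binding signal is a Z-score computed within each array and averaged over linkers. Arrays of the same protein sequence at different concentrations or buffers were also averaged together. Data originate from 3228 arrays in the Consortium for Functional Glycomics database, kept only where the protein sequence was available.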

[2] = biological target: GlcNAc(b1-3)Gal(b1-4)GlcNAc(b1-3)Gal(b1-4)GlcNAc(b1-2)[GlcNAc(b1-3)Gal(b1-4)GlcNAc(b1-3)Gal(b1-4)GlcNAc(b1-6)]Man(a1-6)[GlcNAc(b1-3)Gal(b1-4)GlcNAc(b1-3)Gal(b1-4)GlcNAc(b1-2)Man(a1-3)]Man(b1-4)GlcNAc(b1-4)[Fuc(a1-6)]GlcNAc
Procedure, shortened: as §1

[3] = biological target: GlcNAc(b1-3)Gal(b1-4)GlcNAc(b1-3)Gal(b1-4)GlcNAc(b1-3)Gal(b1-4)GlcNAc(b1-2)Man(a1-3)[GlcNAc(b1-3)Gal(b1-4)GlcNAc(b1-3)Gal(b1-4)GlcNAc(b1-3)Gal(b1-4)GlcNAc(b1-2)Man(a1-6)]Man(b1-4)GlcNAc(b1-4)GlcNAc
Procedure, shortened: as §1

[4] = biological target: GlcNAc(b1-3)Gal(b1-4)GlcNAc(b1-3)Gal(b1-4)GlcNAc(b1-3)Gal(b1-4)GlcNAc(b1-2)Man(a1-3)[GlcNAc(b1-3)Gal(b1-4)GlcNAc(b1-3)Gal(b1-4)GlcNAc(b1-3)Gal(b1-4)GlcNAc(b1-2)Man(a1-6)]Man(b1-4)GlcNAc(b1-4)[Fuc(a1-6)]GlcNAc
Procedure, shortened: as §1

[5] = biological target: GlcNAc(b1-3)Gal(b1-4)GlcNAc(b1-3)Gal(b1-4)GlcNAc(b1-3)Gal(b1-4)GlcNAc(b1-2)[GlcNAc(b1-3)Gal(b1-4)GlcNAc(b1-3)Gal(b1-4)GlcNAc(b1-3)Gal(b1-4)GlcNAc(b1-6)]Man(a1-6)[GlcNAc(b1-3)Gal(b1-4)GlcNAc(b1-3)Gal(b1-4)GlcNAc(b1-3)Gal(b1-4)GlcNAc(b1-2)Man(a1-3)]Man(b1-4)GlcNAc(b1-4)[Fuc(a1-6)]GlcNAc
Procedure, shortened: as §1

[6] = biological target: GlcNAc(b1-3)Gal(b1-4)GlcNAc(b1-3)Gal(b1-4)GlcNAc(b1-3)Gal(b1-4)GlcNAc(b1-3)Gal(b1-4)GlcNAc(b1-2)Man(a1-3)[GlcNAc(b1-3)Gal(b1-4)GlcNAc(b1-3)Gal(b1-4)GlcNAc(b1-3)Gal(b1-4)GlcNAc(b1-3)Gal(b1-4)GlcNAc(b1-2)Man(a1-6)]Man(b1-4)GlcNAc(b1-4)GlcNAc
Procedure, shortened: as §1

[7] = biological target: GlcNAc(b1-3)Gal(b1-4)GlcNAc(b1-3)Gal(b1-4)GlcNAc(b1-3)Gal(b1-4)GlcNAc(b1-3)Gal(b1-4)GlcNAc(b1-2)Man(a1-3)[GlcNAc(b1-3)Gal(b1-4)GlcNAc(b1-3)Gal(b1-4)GlcNAc(b1-3)Gal(b1-4)GlcNAc(b1-3)Gal(b1-4)GlcNAc(b1-2)Man(a1-6)]Man(b1-4)GlcNAc(b1-4)[Fuc(a1-6)]GlcNAc
Procedure, shortened: as §1

[8] = biological target: GlcNAc(b1-3)Gal(b1-4)GlcNAc(b1-3)Gal(b1-4)GlcNAc(b1-3)Gal(b1-4)GlcNAc(b1-3)Gal(b1-4)GlcNAc(b1-2)[GlcNAc(b1-3)Gal(b1-4)GlcNAc(b1-3)Gal(b1-4)GlcNAc(b1-3)Gal(b1-4)GlcNAc(b1-3)Gal(b1-4)GlcNAc(b1-6)]Man(a1-6)[GlcNAc(b1-3)Gal(b1-4)GlcNAc(b1-3)Gal(b1-4)GlcNAc(b1-3)Gal(b1-4)GlcNAc(b1-3)Gal(b1-4)GlcNAc(b1-2)Man(a1-3)]Man(b1-4)GlcNAc(b1-4)[Fuc(a1-6)]GlcNAc
Procedure, shortened: as §1

[9] = biological target: GlcNAc(b1-3)Gal(b1-4)GlcNAc(b1-3)Gal(b1-4)GlcNAc(b1-3)GalNAc
Procedure, shortened: as §1

[10] = biological target: GlcNAc(b1-3)Gal(b1-4)GlcNAc(b1-3)GalNAc
Procedure, shortened: as §1

[11] = biological target: GlcNAc(b1-3)Gal(b1-4)GlcNAc(b1-3)[GlcNAc(b1-3)Gal(b1-4)GlcNAc(b1-3)]GalNAc
Procedure, shortened: as §1

[12] = biological target: GlcNAc(b1-3)Gal(b1-4)GlcNAc(b1-6)[Gal(b1-3)]GalNAc
Procedure, shortened: as §1

[13] = biological target: GlcNAc(b1-3)Gal(b1-4)GlcNAc(b1-6)[GlcNAc(b1-3)Gal(b1-3)]GalNAc
Procedure, shortened: as §1

[14] = biological target: GlcNAc(b1-3)Gal(b1-4)GlcNAc(b1-6)[GlcNAc(b1-3)]Gal(b1-4)GlcNAc
Procedure, shortened: as §1

GlcNAc(b1-3)GalNAc = biological target: GlcNAc(b1-3)GalNAc
Procedure, shortened: as §1

GlcNAc(b1-3)Man = biological target: GlcNAc(b1-3)Man
Procedure, shortened: as §1

[15] = biological target: GlcNAc(b1-3)[GlcNAc(b1-4)][GlcNAc(b1-6)]GlcNAc
Procedure, shortened: as §1

[16] = biological target: GlcNAc(b1-3)[GlcNAc(b1-6)]Gal(b1-4)GlcNAc
Procedure, shortened: as §1

[17] = biological target: GlcNAc(b1-3)[GlcNAc(b1-6)]GalNAc
Procedure, shortened: as §1

[18] = biological target: GlcNAc(b1-4)Gal(b1-4)GlcNAc
Procedure, shortened: as §1

GlcNAc(b1-4)GlcNAc = biological target: GlcNAc(b1-4)GlcNAc
Procedure, shortened: as §1

[19] = biological target: GlcNAc(b1-4)GlcNAc(b1-4)GlcNAc
Procedure, shortened: as §1

[20] = biological target: GlcNAc(b1-4)GlcNAc(b1-4)GlcNAc(b1-4)GlcNAc(b1-4)GlcNAc
Procedure, shortened: as §1

B1: CBM40 CPF071 (Clostridium perfringens) (protein)
chain: MAHHHHHHVGTGSNDDDDKSPDPMLSSLGEYKDINLESSNASNITYDLEKYKNLDEGTIVVRFNSKDSKIQSLLGISNSKTKNGYFNFYVTNSRVGFELRNQKNEGNTQNGTENLVHMYKDVALNDGDNTVALKIEKNKGYKLFLNGKMIKEVKDTNTKFLNNIENLDSAFIGKTNRYGQSNEYNFKGNIGFMNIYNEPLGDDYLLSKTGETK
glycan array binding signal (z-score) [1]: -0.411 | glycan array binding signal (z-score) [2]: -0.486 | glycan array binding signal (z-score) [3]: -0.435 | glycan array binding signal (z-score) [4]: 0.669 | glycan array binding signal (z-score) [5]: -0.373 | glycan array binding signal (z-score) [6]: -0.117 | glycan array binding signal (z-score) [7]: -0.108 | glycan array binding signal (z-score) [8]: -0.429 | glycan array binding signal (z-score) [9]: -0.406 | glycan array binding signal (z-score) [10]: 0.772 | glycan array binding signal (z-score) [11]: -0.403 | glycan array binding signal (z-score) [12]: -0.246 | glycan array binding signal (z-score) [13]: 0.157 | glycan array binding signal (z-score) [14]: -0.324 | glycan array binding signal (z-score) (GlcNAc(b1-3)GalNAc): -0.408 | glycan array binding signal (z-score) (GlcNAc(b1-3)Man): 0.136 | glycan array binding signal (z-score) [15]: 0.522 | glycan array binding signal (z-score) [16]: -0.146 | glycan array binding signal (z-score) [17]: -0.025 | glycan array binding signal (z-score) [18]: 1.02 | glycan array binding signal (z-score) (GlcNAc(b1-4)GlcNAc): 0.137 | glycan array binding signal (z-score) [19]: -0.427 | glycan array binding signal (z-score) [20]: 0.01
